# ± gives the standard deviation of the averaged measurements. Some of the results follow.
# Tested on: PfAP2-I AP2 domain 3 (GST-tagged)
# Experiment: gcPBM binding intensity (ln(normalized median fluorescence intensity)); higher = stronger DNA binding
# Outline: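 After 1 h on an Agilent 4 × 180k array of primer-extended double-stranded 36-bp intergenic genomic probes and negative controls, bound GST-tagged P. falciparum DNA-binding domains were detected with Alexa488 anti-GST antibody and scanned at 488 nm. The domains had been expressed in E. coli, and binding took place in 1× PBS with 1% milk, 0.2 mg/ml BSA, 0.5% salmon testes DNA and 0.03% Triton X-100. Binding intensity is the highest Masliner-normalised natural-log median intensity across replicate spots of either probe orientation.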
row,Sequence,gcPBM binding intensity (ln)
1,TATATATATATACATTGTACATTATTGATTATAACA [XGTACX_site1678],9.26 ± 0.31
2,TTTGAATCCTTATATACACACATTATATAATATTAT [CACACA_site4472],8.02 ± 0.5
3,TTTATTCTCCGACACACACACATATATTTATTTATA [CACACA_site7377],8.14 ± 0.28
4,AAATTAGAATTAGGAACACACATATTTATATTTATA [CACACA_site7450],7.46 ± 0.59
5,ATATATAAAAAATGTGGTACATTCATTTATTATACA [XGTACX_site3495],7.75 ± 0.13
6,AATAAATAAATATATACACACATATATCTGTACATA [CACACA_site9034],7.68 ± 0.52
7,AGGAAAAAAAAAATGTGTACTTAAAAAAAAAAAATT [XGTACX_site1471],7.91 ± 0.47
8,TTTTATCATATTTATTGTACACATAATATACATATC [XGTACX_site1145],8.39 ± 0.45
9,CGTTTATATTTTAACTGTACTCAAAAAGTGCATTGT [XGTACX_site6072],9.64 ± 0.38
10,TTTTATATATTATATACACACATATATATATATATA [CACACA_site2999],9.46 ± 0.53
11,TGTATGTTTATTTATCGTACATATATATATATATAT [XGTACX_site7315],9.44 ± 0.64
12,ACATATTTCCAATAATGTACATACAAAATAAGAATG [XGTACX_site2659],7.82 ± 0.58
13,TGTTCATTTATTTACTTACACACTTTATATATGTGG [CACACA_site1410],7.79 ± 0.59
14,TAAAAGTAGATATATACACACATAAATATAGATGTA [CACACA_site6457],7.32 ± 0.45
15,ACAAAGTAAAATAATGCATGTAGGTATACATAATTA [TGCATGCA_site607],7.71 ± 0.81
16,AATATTTTATATAAATGTACATTTATGAATAATATA [XGTACX_site8477],7.76 ± 0.31
17,GTGCTAAAAGTATATGCACACACATATATATGCACA [CACACA_site8472],10.9 ± 0.55
18,AATAAAGCAATAAATACACACATATATATATATATA [CACACA_site2934],9.11 ± 0.11
19,TATATAAAAAATAGGTGGTCAACTTAAATATTTTAT [XGTACX_site4495],7.83 ± 0.56
20,AGTTATGCATCTTAGGTGCTATGCCCAATTTATTTT [GTGCAC_site9977],8.49 ± 0.67
21,AACTTACTCTTTACAAGTACGTAAAAGAAATAGAAA [XGTACX_site1782],7.68 ± 0.49
22,TTGCCTTAAAAAGGAACACACATGCTTTTTTTAGTT [CACACA_site938],7.68 ± 0.67
23,AAAAAAAAAAAAAATGCACACATATATTTCCATATA [CACACA_site8416],9.04 ± 0.19

row,Sequence,gcPBM binding intensity (ln)
1,AAAAATGTGCACACGCGTACACACAAAAAAAGAAAA [XGTACX_site4097],9.79 ± 0.62
2,AAAATATATCAAAATAGTACATAATTTTTTAAGAAT [XGTACX_site3515],7.67 ± 0.45
3,TTTTTTTCTTTTTTTTGTACTCATACATACTATCAT [XGTACX_site607],7.78 ± 0.51
4,CACGTGTAAATAGTTTTACAATATCTCGATATGTAT [CACACA_negctrl_site785],7.78 ± 0.31
5,TTACTATGTAAACACACATGCAATATATGTTAAGCC [TGCATGCA_site253],7.86 ± 0.68
6,TTATATGAAAATTATTGTACAATCTATAAAAAAAAT [XGTACX_site4194],7.88 ± 0.42
7,GTAATTATATACATACGTACATACACATATGTATAT [XGTACX_site4149],7.87 ± 0.33
8,GGATATATGAAACATATTGAAAAACCGTTTAGTACA [CACACA_negctrl_site132],7.5 ± 0.57
9,TAATTTTTGTAAACAGTCATGGATTCAAAAAAAAAA [CACACA_negctrl_site593],7.68 ± 0.8
10,AAGGAAATAAGAAAAAGTACACATAAGTATATAACA [XGTACX_site1173],7.93 ± 0.59
11,TAATAATCAAACTATACACACATAAATAAATATATA [CACACA_site156],7.59 ± 0.27
12,ATATATCCAAATAGATTACATATATATATATAGATA [TGCATGCA_negctrl_site277],7.49 ± 0.33
13,AAATATAATAAAATGACACACGCATATATATATATA [CACACA_site8900],9.38 ± 0.46
14,AAATAAGAACATAGAATGCACTTTTTTTTTTTTTCC,8.89 ± 0.45
15,ATATATTTATATATTGCACACAAAAAAAAAAAAAAA [CACACA_site8468],10.5 ± 0.45
16,AACATTATAAGACACACACACACATATATAAATATA [CACACA_site6622],8.18 ± 0.35
17,GTATATATACATAAATGTACATATATATAAAAAATG [XGTACX_site3271],7.68 ± 0.52
18,AATATATAAGTCTACTGTACCCAAAATAAAATTTAT [XGTACX_site8727],7.89 ± 0.26
19,TATTGCCCTTGACACACACACATATAAATAAATATA [CACACA_site7220],8.3 ± 0.4
20,TTAAACCGTGGGAGCACACACACACCCAGACACATA [CACACA_site4337],8.09 ± 0.38
21,AAATATGTATATATATATATATATATATATATATAT [GTGCAC_negctrl_site335],9.15 ± 0.55
22,TTATGGGACTCAAATACATGCAAAAATATTTTTAAG [TGCATGCA_site559],7.88 ± 0.64
